Measured values reported in PubChem BioAssay AID624417 (National Center for Advancing Translational Sciences (NCATS), 2012).
The campaign covered roughly 410,000 compounds. About 6,400 (1.6%) were called active. The inconclusive results got no clear call from the source; some entries with a clear call stand among them for comparison. The call rests on the fitted dose curve; in most records, active means well fitted inhibition curve with a large enough effect; inconclusive means small, poorly fitted or top-dose-only effect; inactive means no such curve, though single readings can be large or run the other way. Where the call is inconclusive, the potency comes from a doubtful curve fit.

What follows are compounds tested against Glucagon-like peptide 1 receptor (Homo sapiens) (UniProt P43220) (assay: qHTS of GLP-1 Receptor Inverse Agonists (Inhibition Mode)). Settings: HEK293 GLP-1R CRE-luciferase, luminescence, 24 h, GLP-1R form is constitutively active; activity change, negative = inhibition: at 38.3 µM (top of the series) unless noted.
Sequence of UniProt P43220 (P43220 whole entry, looked up): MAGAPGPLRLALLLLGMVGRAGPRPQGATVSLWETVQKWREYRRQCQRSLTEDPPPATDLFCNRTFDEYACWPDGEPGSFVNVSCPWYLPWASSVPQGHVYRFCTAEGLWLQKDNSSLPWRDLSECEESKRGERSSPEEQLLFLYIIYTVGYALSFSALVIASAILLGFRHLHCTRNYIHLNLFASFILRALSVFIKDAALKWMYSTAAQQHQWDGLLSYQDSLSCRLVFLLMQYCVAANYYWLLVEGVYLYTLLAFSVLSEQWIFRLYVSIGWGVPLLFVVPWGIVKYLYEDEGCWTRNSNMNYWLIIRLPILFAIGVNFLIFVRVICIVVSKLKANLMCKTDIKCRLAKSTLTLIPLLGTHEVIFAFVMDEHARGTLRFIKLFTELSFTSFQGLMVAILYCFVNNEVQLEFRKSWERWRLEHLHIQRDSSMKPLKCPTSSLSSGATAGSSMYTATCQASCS
Method in brief: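 GLP-1R inverse agonism mode: basal reporter luminescence in engineered HEK293 cells measured after one day of compound exposure at 37 deg C, with a 12 min room-temperature detection step.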
Further: nearly all actives have a fitted effect of over 55% in size.
On the % scale 0 is the no-effect control and ±100 the full control effect; potency means the concentration at half of the fitted maximal effect; tags describe the fitted curve by direction and shape.

Potency, active:
CCN(c1ccccc1)S(=O)(=O)c1cccc(C(=O)NCC2(N(C)C)CCCCC2)c1 10 µM
Cc1ccc(NC(=O)C2CCCN(c3ncnc4c3nc3n4CCCCC3)C2)cc1F (stereo not drawn) 3.55 µM

Potency, inactive:
CC(C)(O)CN(C(=O)c1ccccc1)C1CCCCC1
COC(=O)COc1cc(OCC(=O)OC)c2c(C)c(Cl)c(=O)oc2c1
CCOC(=O)c1c(NC(=O)COC(=O)c2ccc(S(=O)(=O)C(F)F)cc2)sc(C(=O)N(C)C)c1C
CCCN(CCC)CCCNC(=O)c1cc2c(=O)oc3ccc(C)cc3c2s1
COCCCN(C(=O)CSCc1c(C)noc1C)c1c(N)n(Cc2ccccc2)c(=O)[nH]c1=O
O=C(NCC1CC1)NC(=O)c1c(F)cccc1Cl
C=CCNS(=O)(=O)NC(=O)C1=C(N2CCCC2)COC1=O
COc1ccc(C(CC(=O)Nc2ccc(C)cn2)N2Cc3ccccc3C2=O)cc1OC (stereo not drawn)
Cc1ccc(-c2nnc(N3CCCCC3)c3ccccc23)cc1S(=O)(=O)N1CCN(C)CC1
O=C(O)c1ccc(Cl)c(S(=O)(=O)Nc2ccc3cn[nH]c3c2)c1
Clc1ccc(OCCN2CCOCC2)cc1Cl

Potency, inconclusive:
COc1ccc2c(c1)CCC1C2=NN(/C(C)=C/C(C)=O)C1c1cccc(F)c1 (stereo not drawn) 11.2 µM [inhibitor, partial curve, poor fit]
O=C(Nc1cccc(C(F)(F)F)c1)C1CCN(c2nnc(-n3cccc3)s2)CC1 28.2 µM [inhibitor, single point]
Cc1ccc(NS(=O)(=O)c2cccc(C(=O)N3CCCCC3)c2)cc1 1.78 µM [inhibitor, partial curve, poor fit]
O=C(Cc1ccc(Cl)cc1)Nc1ccc(N2CCN(C(=O)c3ccco3)CC2)c(Cl)c1 8.91 µM [inhibitor, partial curve, poor fit]
CC(=O)C1=C(C)N(Cc2ccccc2)C(=O)N[C@@H]1c1cccc(C(F)(F)F)c1 10 µM [inhibitor, single point]
CSCc1cc(N2CCCC2)nc(-c2ccccc2)n1 14.1 µM [inhibitor, single point]
CCN1CCN(C(=O)c2ccc3nc(-c4ccccc4)c(-c4ccccc4)nc3c2)CC1 14.1 µM [inhibitor, single point]
CCN(C(=O)/C=C/c1ccc2c(c1)OCO2)c1ccccc1 28.2 µM [inhibitor, single point]
Cc1ccc2nc(/C(C#N)=C/c3cccc(Br)c3)[nH]c2c1 28.2 µM [inhibitor, single point]
O=C(Cc1csc2ccccc12)NCc1cccc(Br)c1 10 µM [inhibitor, single point]
CCCn1c(C2CCCN2c2nc(-c3cccc(Br)c3)cs2)nc2ccccc21 (stereo not drawn) 14.1 µM [inhibitor, single point]
OC(c1cc(C(F)(F)F)nc2c(C(F)(F)F)cccc12)C1CCCCN1 (stereo not drawn) 11.2 µM [inhibitor, partial curve, poor fit]
O=C(COC(=O)C12CC3CC(CC(C3)C1)C2)Nc1ccc(OC(F)F)cc1 11.2 µM [inhibitor, single point]
OC1CCN(Cc2cn(Cc3ccccc3)nc2-c2cc3ccccc3o2)CC1 12.6 µM [inhibitor, single point]
Cc1nc2cccnc2n1C1CCN(S(=O)(=O)c2ccc(Cl)cc2)CC1 28.2 µM [inhibitor, single point]
c1ccc(C[n+]2cccc3c4ccccc4ccc32)cc1 1 µM [inhibitor, full curve, poor fit]
CC(C)(CNC(=S)NCCc1ccccc1)CNC(=S)NCCc1ccccc1 14.1 µM [inhibitor, single point]
Oc1ccccc1-c1cc(-c2ccccc2)n[nH]1 14.1 µM [inhibitor, single point]
N#Cc1c(/N=C/c2ccco2)oc(-c2ccccc2)c1-c1ccccc1 31.6 µM [inhibitor, single point]
CC(C)N(C(=O)CSc1nc2ccccc2n1Cc1ccccc1)C(C)C 2.51 µM [inhibitor, partial curve, poor fit]
Cc1ccc(Nc2cc(C)nc3nc(Cc4ccc(Cl)cc4)nn23)cc1 12.6 µM [inhibitor, partial curve, poor fit]
Cc1ccccc1S(=O)(=O)N1[C@@H](c2cccc(Cl)c2)C(C(=O)O)=CC[C@H]1c1ccc(Cl)cc1 7.94 µM [inhibitor, partial curve, poor fit]
Cc1cc2ccccn2c1C(=O)c1cccc(S(=O)(=O)N2CCOCC2)c1 22.4 µM [inhibitor, partial curve, poor fit]
Cc1ccc(-c2ccc(=O)n(Cc3ccc(F)cc3)n2)cc1 10 µM [inhibitor, single point]
O=C(COC(=O)C1CC2C=CC1C2)Nc1ccc([N+](=O)[O-])cc1 (stereo not drawn) 7.94 µM [inhibitor, partial curve, poor fit]
O=C1NN(c2ccccc2)C(=O)/C1=C/c1ccc(-c2ccc(C(=O)O)cc2)o1 6.31 µM [inhibitor, partial curve, poor fit]
CN(CCc1ccccc1)C(C(=O)c1ccc2c(c1)OCO2)c1nnnn1-c1ccccc1NC(=O)OC(C)(C)C (stereo not drawn) 28.2 µM [inhibitor, single point]
Cc1cc(NC(=O)Cn2c(C)nc3ccccc3c2=O)ccc1Br 28.2 µM [inhibitor, single point]
CCC(CC)C(=O)Nc1nnc(SCC(=O)N2CCN(c3ccccc3OC)CC2)s1 28.2 µM [inhibitor, single point]
c1ccc(-c2noc(-c3cccs3)n2)nc1 7.94 µM [inhibitor, partial curve, poor fit]
COC(=O)c1c(C)oc2ccc(N(C(=O)c3ccncc3)S(=O)(=O)c3cc(C)c(C)cc3C)cc12 8.91 µM [inhibitor, partial curve, poor fit]
Nc1cccc(-c2nc3cc(S(=O)(=O)c4ccc5oc(-c6cccc(N)c6)nc5c4)ccc3o2)c1 28.2 µM [inhibitor, single point]
Cc1cc(Cl)ccc1OCC(=O)N1C(C)CCCC1C (stereo not drawn) 28.2 µM [inhibitor, single point]
CCOC(=O)C1=C(C)NC(C)=C(C(=O)OCC)C1C(=O)OCC(=O)NCc1ccc(F)cc1 17.8 µM [inhibitor, single point]
Cc1cc(NC(=O)CS(=O)(=O)c2cn(Cc3cccc(Br)c3)c3ccccc23)no1 22.4 µM [inhibitor, single point]
Cc1ccc(O)c(CNc2nc3ccccc3n2C(C)C)c1 10 µM [inhibitor, partial curve]
CC1CCC(NC(=O)Nc2cccs2)CC1 (stereo not drawn) 12.6 µM [inhibitor, single point]
COCC(C)OC(=O)c1c(N)n(CC(C)C)c2nc3ccccc3nc12 (stereo not drawn) 14.1 µM [inhibitor, single point]
CCOC(=O)c1c(S(=O)(=O)N2CCC(C(=O)N3CCN(c4cccc(C)c4C)CC3)CC2)c(C)n(C)c1C 22.4 µM [inhibitor, single point]
CSc1ccccc1NC(=S)NC1CCCCC1 28.2 µM [inhibitor, single point]
COC(/C(=N/O)c1ccc(Cl)cc1)c1ccccc1 (stereo not drawn) 11.2 µM [inhibitor, partial curve, poor fit]
Cc1ccccc1-c1nnc(CN2CCN(c3cc(Cl)ccc3C)CC2)o1 12.6 µM [inhibitor, single point]
CCCOc1cccc(C(=O)Nc2ccc3c(c2)OCCO3)c1 28.2 µM [inhibitor, single point]
CCN(CC(=O)NC(C)(C)C)C(=O)COc1c(Cl)cc(Cl)c2ccc(C)nc12 12.6 µM [inhibitor, partial curve, poor fit]
CC1CCCN(CCOCCOc2ccc(Cl)cc2Br)C1 (stereo not drawn) 28.2 µM [inhibitor, single point]
O=C(NCc1ccccc1Cl)C1(S(=O)(=O)c2ccc(Cl)cc2)CC1 11.2 µM [inhibitor, partial curve, poor fit]
CC(C)Oc1cccc(NC(=O)C2CCN(S(=O)(=O)Cc3ccccc3)CC2)c1 28.2 µM [inhibitor, single point]
CCc1noc(-c2ccc(NC(C)c3ccccc3)c([N+](=O)[O-])c2)n1 (stereo not drawn) 11.2 µM [inhibitor, partial curve]
O=C(c1cc(-c2ccc(Cl)s2)nc2ccccc12)N1CCOCC1 10 µM [inhibitor, partial curve, poor fit]

Activity change, negative = inhibition, inactive:
COc1ccc(-n2c(=O)/c(=C\c3cccs3)s/c2=C(/C#N)C(=O)N2CCN(C)CC2)cc1 1.36% [at 0.307 µM]
